SMILES strings stand for the structures. The list shows a part of the results.

The assay has as its system HepG2. As to the kind of experiment: cytotoxicity call (relative viability < 0.9). The following applies: 10 µM.
`C[C@@H]1CN([C@@H](C)CO)C(=O)c2cc(NC(=O)Nc3ccccc3)ccc2O[C@@H](C)CCCCO[C@H]1CN(C)S(=O)(=O)c1cccc(F)c1`: the cytotoxicity call was “inactive”.

In the case of `COc1ccc(NC(=O)N(C)C[C@H]2OCc3cnnn3CCCC(=O)N([C@@H](C)CO)C[C@@H]2C)c(OC)c1`, the cytotoxicity call was “inactive”. Turning to `CSC1=N[C@@]2(C)CCCC[C@@H]2c2c1ccc1ccccc21`, the cytotoxicity call is “inactive”. As to `Cc1nn(-c2nc3c(c(=O)n(CC(N)=O)c(=O)n3C)n2C)c(C)c1C`, the cytotoxicity call is “inactive”. On to `C[C@@H]1CN([C@@H](C)CO)S(=O)(=O)c2ccc(C#CC(C)(C)O)cc2O[C@H]1CN(C)C(=O)CN(C)C`, for which the cytotoxicity call was “inactive”. Take `C[C@@H]1CCCCO[C@@H](CN(C)C(=O)CCC(F)(F)F)[C@H](C)CN([C@@H](C)CO)C(=O)c2cc(NC(=O)c3ccccc3)ccc2O1`: the cytotoxicity call is “inactive”. Turning to `C=CCNC(=O)[C@H]1[C@@H]2C(=O)O[C@@H](c3ccccc3)[C@@H](c3ccccc3)N2[C@@H](c2ccc(O)cc2)[C@]12C(=O)N(C(=O)OCCOC)c1ccc(C#Cc3ccc(OC)cc3)cc12`, the cytotoxicity call is “inactive”.

For the compound `CCC(C)CCCCC(=O)NC(CCN)C(=O)NC(C(=O)NC(CCN)C(=O)NC1CCNC(=O)C(C(C)O)NC(=O)C(CCN)NC(=O)C(CCN)NC(=O)C(CC(C)C)NC(=O)C(Cc2ccccc2)NC(=O)C(CCN)NC1=O)C(C)O.O=S(=O)(O)O` (stereo not drawn), the cytotoxicity call is “inactive”. In the case of `C[C@@H]1CN([C@H](C)CO)C(=O)c2cc(C#Cc3ccccc3)cnc2O[C@@H]1CN(C)C(=O)CCN1CCCCC1` it was “inactive”; in that of `CN(C)Cc1ccc(O)c(CN(C)C)n1`, “inactive”; in that of `CC1=C(C(=O)O)N2C(=O)[C@@H](NC(=O)[C@@H](N)c3ccccc3)[C@H]2SC1`, “inactive”.

On to `CO[C@@H]1CN(C)C(=O)c2ccc(NS(C)(=O)=O)cc2OC[C@@H](C)N(S(C)(=O)=O)C[C@H]1C`, for which the cytotoxicity call was “inactive”. The value for `C[C@@H]1CN([C@H](C)CO)C(=O)c2cc(C#CC3(O)CCCC3)cnc2O[C@@H]1CN(C)C(=O)CN(C)C` was “inactive”. For `COc1ccc(S(=O)(=O)N(C)C[C@H]2OCCCC[C@H](C)Oc3ccc(NS(=O)(=O)c4ccc(Cl)cc4)cc3C(=O)N([C@H](C)CO)C[C@@H]2C)cc1`, the cytotoxicity call was “active”. The value for `CC(C)NC(=O)N(C)C[C@@H]1Oc2ccc(NC(=O)CCN3CCOCC3)cc2C(=O)N([C@@H](C)CO)C[C@@H]1C` was “inactive”. For the compound `C[C@H](CO)N1C[C@H](C)[C@@H](CN(C)S(=O)(=O)c2cccs2)OCCCC[C@H](C)Oc2ccc(NC(=O)Nc3ccc(C(F)(F)F)cc3)cc2C1=O`, the cytotoxicity call is “inactive”.

On to `COc1ccc(NC(=O)Nc2ccc3c(c2)C(=O)N([C@@H](C)CO)C[C@H](C)[C@H](CN(C)S(=O)(=O)c2cccs2)OCCCC[C@@H](C)O3)cc1`, for which the cytotoxicity call is “inactive”. The value for `C[C@@H](NC(=O)C[C@H]1CC[C@@H](NC(=O)CN2CCOCC2)[C@@H](CO)O1)c1ccccc1` was “inactive”.

Consider `CCCN(C)C[C@@H]1OCCCC[C@H](C)Oc2ccc(NC(=O)c3ccccc3)cc2C(=O)N([C@H](C)CO)C[C@@H]1C`, for which the cytotoxicity call is “inactive”. The value for `COc1ccc(S(=O)(=O)N(C)C[C@@H]2Oc3ccc(NC(=O)CCN4CCOCC4)cc3C(=O)N([C@H](C)CO)C[C@@H]2C)cc1` was “inactive”; that for `COc1ccccc1C#Cc1ccc2c(c1)O[C@@H](CN(C)Cc1ccncc1)[C@H](C)CN([C@H](C)CO)S2(=O)=O` was “inactive”.

In the case of `C[C@@H]1CCCCO[C@H](CN(C)Cc2ccc(C(F)(F)F)cc2)[C@H](C)CN([C@@H](C)CO)C(=O)c2cc(NC(=O)CCCN(C)C)ccc2O1`, the cytotoxicity call is “active”. The value for `C[C@H](CO)N1C[C@H](C)[C@H](CN(C)C(=O)Cc2ccccc2)OCCCC[C@H](C)Oc2ccc(NC(=O)Nc3cccc4ccccc34)cc2C1=O` was “inactive”.

Source of the values: the antibiotic and cytotoxicity screens of Wong et al. (2023).
